# Experimental data published in PubChem BioAssay AID1466 (National Center for Advancing Translational Sciences (NCATS), 2008).
# In all, about 200,000 compounds went through this assay and about 10 (0.005%) were called active. The shares of active, inactive and inconclusive entries below differ from those in the screen. The call rests on the fitted dose curve; in most records, active means well fitted inhibition curve with a large enough effect; inconclusive means small, poorly fitted or top-dose-only effect, or effect the other way, or another doubt; inactive means no such curve, though single readings can be large or run the other way. No potency is given beside an inconclusive call; the fits are too rough.
# Biological target: Lysosomal alpha-glucosidase (Homo sapiens) (UniProt P10253)
# Experiment: qHTS Assay for Inhibitors of Human alpha-Glucosidase as a Potential Chaperone Treatment of Pompe Disease;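 on activity change, negative = inhibition: plate controls were uninhibited enzyme wells for no effect and no-enzyme background for full effect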
# Details: purified human GAA, 4-MU-alpha-glucoside fluorescence; activity change, negative = inhibition: at 76.9 µM (top of the series) unless noted
# Outline: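 qHTS format, compound range up to 77 uM. Human lysosomal enzyme at 4 nM, 400 uM 4-MU glucoside substrate, pH 5.0, 20 min room temperature; fluorescence after alkaline stop gives activity normalized to controls.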
# Potency means the concentration at half of the fitted maximal effect; tags describe the fitted curve by direction and shape.
Compound,Potency,"activity change, negative = inhibition"
COCCn1c(N)c(C(=O)NCc2cccs2)c2nc3ccccc3nc21,"inconclusive [activator, partial curve]",
COc1cccc(-n2c(SCC(N)=O)nc3ccccc3c2=O)c1,"inconclusive [inhibitor, full curve, poor fit]",
CCCCOc1cc(C)nc(NCc2ccccc2)n1,"inconclusive [inhibitor, partial curve]",
COc1ccccc1NS(=O)(=O)c1ccc(Cl)c(NC(=O)c2sc3cc(Cl)ccc3c2Cl)c1,"inconclusive [activator, partial curve]",
CC(C)(C)C(=O)N1N=C(c2ccc(NS(C)(=O)=O)cc2)CC1c1cccs1 (stereo not given),"inconclusive [activator, single point]",
CCN(CC)S(=O)(=O)c1cccc(-c2nnc(C(=O)c3ccc(C(F)(F)F)cc3)o2)c1,,inactive: 1.82%
C=CCc1ccc(OCCCCCN2CCOCC2)c(OC)c1,,inconclusive: -17.4% [inhibitor]
COc1ccc(C(=O)NC(C)c2ccccc2)cc1Br (stereo not given),"inconclusive [inhibitor, single point]",
CCS(=O)(=O)c1nc(NC(C)=O)n[nH]1,,inconclusive: 15.1% [activator]
CCOC(=O)c1c(N)n(CC(C)NC(=O)C2CC2)c2nc3ccccc3nc12 (stereo not given),"inconclusive [activator, partial curve]",
Cc1[nH]nc2c1C(c1cccs1)C1=C(CC(C)(C)CC1=O)N2 (stereo not given),,inconclusive: 16% [activator]
Cc1occc1C(=O)NNC(=O)Cc1ccccc1,"inconclusive [inhibitor, single point]",
COc1cc(OC)cc(C(=O)N[C@H](C(=O)NCc2ccco2)C(C)C)c1,,inconclusive: -15.5% [inhibitor]
ClC1(Cl)CC1Cn1c(C2CC2)nc2ccccc21 (stereo not given),"inconclusive [activator, full curve]",
O=S(=O)(c1ccc(N2CCOCC2)cc1)N1CCOCC1,,inactive: 0.0777%
CC(C)c1ccc(NC(=O)C(c2ccc3c(c2)OCO3)N2CCCCC2)cc1 (stereo not given),"inconclusive [inhibitor, partial curve, poor fit]",
C=C1C(=O)O[C@H]2C1CC[C@@](C)(O)C13C=CC(C)(C21)C1(C3)C(=O)O[C@@H]2C3C(C)=CCC3[C@](C)(O)C[C@H](OC(C)=O)C21 (stereo not given in full),"inconclusive [inhibitor, single point]",
CCC(c1nnnn1C1CCCC1)N(Cc1cccs1)Cc1cc2cccc(C)c2[nH]c1=O (stereo not given),,inconclusive: -15.8% [inhibitor]
CCOC(=O)NC1(Nc2ccc(Cl)cn2)Oc2ccccc2O1,,inactive: 2.82%
O=c1ccc(Oc2nc(N3CCOCC3)nc(N3CCOCC3)n2)n[nH]1,"inconclusive [inhibitor, single point]",

Compound,Potency,"activity change, negative = inhibition"
Cc1c(O)ccc(NS(=O)(=O)c2ccccc2)c1C,,inconclusive: -15.6% [inhibitor]
COc1ccc(OC)c(NC(=O)Cn2c(CCC(=O)O)ccc2-c2ccccc2)c1,"inconclusive [inhibitor, full curve, poor fit]",
COc1cc(C(C(=O)NC2CCCCC2)N(Cc2ccco2)C(=O)c2cnccn2)cc(OC)c1OC (stereo not given),,inconclusive: 15.3% [activator]
Cc1ccc(C(C(=O)NC(C)(C)C)N(Cc2cccs2)C(=O)c2ccc3c(c2)OCCO3)cc1 (stereo not given),"inconclusive [inhibitor, partial curve]",
Fc1ccc(CSc2nnc(-c3cc4c(s3)-c3ccccc3CC4)o2)cc1,"inconclusive [activator, partial curve]",
COc1cc(/C=N/OCC(=O)NC23CC4CC(CC(C4)C2)C3)ccc1OCc1ccccc1,"inconclusive [inhibitor, full curve, poor fit]",
CCOC(=O)c1sc2nc(C3CC3)cc(-c3ccc(OC)cc3)c2c1N,"inconclusive [activator, partial curve, poor fit]",
COc1ccccc1CCc1nnc(CCC(=O)NCC[C@@H]2C[C@@H]3C=C[C@H]2C3)o1,,inconclusive: 15.4% [activator]
Cc1csc(NC(=O)C2COc3ccccc3O2)n1 (stereo not given),"inconclusive [inhibitor, partial curve, poor fit]",
COc1ccc2nc(SCc3ccccc3)nc(C)c2c1,"inconclusive [activator, single point]",
O=C(CSc1nc2cc(S(=O)(=O)N3CCOCC3)ccc2o1)NC1CCCc2ccccc21 (stereo not given),"inconclusive [inhibitor, single point]",
COc1cc(CNCCc2c[nH]c3ccccc23)cc(Cl)c1OCC(N)=O,"inconclusive [inhibitor, single point]",
Cc1ccc(-n2c3nc(=O)[nH]c(=O)c-3cc3c(C)nn(-c4ccccc4)c32)c(C)c1,"inconclusive [activator, partial curve]",
CC(C)OC(=O)c1cc(C(=O)c2cc(F)ccc2O)coc1=N,,inconclusive: 18.2% [activator]
O=C(NNC1=Nc2cccc3cccc1c23)c1ccc(Br)cc1,"inconclusive [inhibitor, single point]",
CCc1sc(/C=C(/C#N)C(N)=S)cc1[N+](=O)[O-],"inconclusive [inhibitor, single point]",
C/C(CC(=O)Nc1ccc([N+](=O)[O-])cc1)=N/NC(=O)C1CC12CCC2 (stereo not given),"inconclusive [inhibitor, single point]",
Cc1cc(=O)oc(C)c1C(=O)NCc1ccc(F)cc1,"inconclusive [inhibitor, partial curve]",
COCCn1c(=N)c(C(=O)NCc2ccco2)cc2c(=O)n3cc(C)ccc3nc21,"inconclusive [activator, partial curve]",
Cc1csc(C2=C(O)CN(CCc3ccccc3)C2=N)n1,"inconclusive [inhibitor, single point]",
